Screen size: about 39,000 compounds; about 220 (0.56%) showed activity. Some of the results follow.
These molecules were tested on Escherichia coli K-12 BW25113 (assay: relative growth (OD600 normalised to plate interquartile mean) (fraction); higher = less growth inhibition, active = 0.2 or less). Conditions: 50 µM; LB; incubation time: overnight (16-24 h).
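Further: static incubation at 37 °C against the wild-type strain, values averaged over two biological replicates.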

| Structure (SMILES) | relative growth |
| --- | --- |
| Cc1noc(C)c1S(=O)(=O)Nc1ccc2c(c1)C(=O)N([C@H](C)CO)C[C@H](C)[C@@H](CN(C)C(=O)Nc1ccc(C(F)(F)F)cc1)OCCCC[C@H](C)O2 | inactive: 1.01 |
| C[C@@H]1CN([C@H](C)CO)C(=O)Cc2cc(NC(=O)Cn3cnnn3)ccc2O[C@H]1CN(C)C(=O)Nc1ccc(F)cc1 | inactive: 0.988 |
| Cc1ccc(S(=O)(=O)N2C[C@H](O)COC[C@@H]3O[C@@H](CC(=O)NCc4ccc(Cl)c(Cl)c4)CC[C@H]32)cc1 | inactive: 1 |
| Cc1noc(C)c1NC(=O)Nc1ccc2c(c1)C(=O)N([C@@H](C)CO)C[C@@H](C)[C@H](CN(C)Cc1ccc(Oc3ccccc3)cc1)O2 | inactive: 1.01 |
| C[C@H]1CN([C@@H](C)CO)C(=O)c2cc(C#CC3CC3)cnc2O[C@@H]1CN(C)S(=O)(=O)c1cccc(F)c1 | inactive: 1.04 |
| CSc1cccc2sc(Nc3ccc(Cl)cc3)nc12 | inactive: 0.908 |
| C[C@@H]1CN([C@H](C)CO)C(=O)c2cc(C#CC3(O)CCCC3)cnc2O[C@H]1CN(C)S(=O)(=O)c1ccccc1 | inactive: 1.03 |
| Cc1nnc(NCCc2ccccc2)n(N)c1=O | inactive: 0.998 |
| COc1ccc(S(=O)(=O)N(C)C[C@H]2OCCCC[C@H](C)Oc3ccc(NC(=O)C4CCCCC4)cc3C(=O)N([C@H](C)CO)C[C@H]2C)cc1 | inactive: 1.04 |
| C[C@H](CO)N1C[C@H](C)[C@@H](CN(C)C(=O)C2CCC2)Oc2cc(C#Cc3ccncc3)ccc2S1(=O)=O | inactive: 1.01 |
| C[C@H](CO)N1C[C@H](C)[C@H](CN(C)S(C)(=O)=O)Oc2ccc(NC(=O)CCCN(C)C)cc2CC1=O | inactive: 0.992 |
| C[C@H](CO)N1C[C@H](C)[C@H](CN(C)C(=O)Nc2cccc3ccccc23)Oc2ccc(NC(=O)CCC(F)(F)F)cc2C1=O | inactive: 0.98 |
| C[C@H]1CN([C@@H](C)CO)C(=O)c2cccc(NC(=O)c3ccncc3)c2O[C@H]1CN(C)Cc1ccc(Oc2ccccc2)cc1 | inactive: 1.01 |
| O=C(Nc1ccc2c(c1)[C@@H]1C[C@H](CC(=O)N3CCc4ccccc4C3)O[C@@H](CO)[C@@H]1O2)C1CCOCC1 | inactive: 0.984 |
| O=C(C[C@@H]1CC[C@@H]2[C@H](COC[C@@H](O)CN2S(=O)(=O)c2cccc(Cl)c2)O1)NCc1ccc2c(c1)OCO2 | inactive: 1.03 |
| COCC(=O)N(C)C[C@H]1Oc2cc(C#Cc3ccccc3)ccc2S(=O)(=O)N([C@@H](C)CO)C[C@H]1C | inactive: 1 |
| O=C(C[C@@H]1C[C@H]2c3cc(NS(=O)(=O)c4ccc(F)cc4)ccc3O[C@H]2[C@@H](CO)O1)NCc1ccncc1 | inactive: 1.01 |
| COc1ccc(NC(=O)Nc2ccc3c(c2)C(=O)N([C@H](C)CO)C[C@@H](C)[C@@H](CN(C)C(=O)NC(C)C)OCCCC[C@H](C)O3)cc1 | inactive: 0.999 |
| Cc1ccc(S(=O)(=O)Nc2ccc3c(c2)C(=O)N([C@H](C)CO)C[C@H](C)[C@H](CN(C)S(=O)(=O)c2ccc(Cl)cc2)OCCCC[C@H](C)O3)cc1 | inactive: 1.01 |
| C[C@@H]1CCCCO[C@H](CN(C)C(=O)Nc2ccc(C(F)(F)F)cc2)[C@@H](C)CN([C@@H](C)CO)C(=O)c2cc(NC(=O)Nc3ccc(C(F)(F)F)cc3)ccc2O1 | inactive: 0.989 |

| Structure (SMILES) | relative growth |
| --- | --- |
| C[C@@H]1CCCCO[C@@H](CN(C)Cc2ccc(C(=O)O)cc2)[C@H](C)CN([C@@H](C)CO)C(=O)c2cc(NC(=O)Nc3ccc(C(F)(F)F)cc3)ccc2O1 | inactive: 0.865 |
| O=C1Sc2cccc3cccc1c23 | inactive: 0.99 |
| CC(=O)O[C@@H]1C[C@H]2[C@@]3(C)CC[C@@H](OC(=O)CC(=O)O)C(C)(C)[C@@H]3CC[C@@]2(C)[C@]2(C)CC[C@](O)([C@]3(C)CC[C@H](C(C)(C)O)O3)[C@@H]12 | inactive: 0.955 |
| Cc1noc(C)c1NC(=O)N(C)C[C@H]1OCCCC[C@H](C)Oc2ccc(NC(=O)Nc3ccc(F)cc3)cc2C(=O)N([C@@H](C)CO)C[C@@H]1C | inactive: 0.987 |
| C[C@@H]1CN([C@@H](C)CO)C(=O)c2cc(NC(=O)Nc3ccc(F)cc3)ccc2O[C@@H](C)CCCCO[C@@H]1CN(C)S(=O)(=O)c1ccc(Cl)cc1 | inactive: 1.04 |
| NCc1ccc(C(=O)O)cc1 | inactive: 1.02 |
| C[C@H](CO)N1C[C@H](C)[C@H](CN(C)C(=O)C2CCCCC2)OCCCC[C@H](C)Oc2ccc(NC(=O)CCC(F)(F)F)cc2C1=O | inactive: 0.991 |
| C[C@@H]1CN([C@@H](C)CO)S(=O)(=O)c2ccc(C#Cc3ccc(F)cc3)cc2O[C@@H]1CN(C)CC1CC1 | inactive: 0.979 |
| C[C@@H]1CCCCO[C@H](CN(C)S(=O)(=O)c2cccs2)[C@H](C)CN([C@@H](C)CO)C(=O)c2cc(NS(C)(=O)=O)ccc2O1 | inactive: 1.02 |
| C[C@@H]1CN([C@H](C)CO)C(=O)Cc2cc(NC(=O)Nc3ccccc3)ccc2O[C@@H]1CN(C)S(=O)(=O)c1cn(C)cn1 | inactive: 0.991 |
| COc1ccccc1-c1ccc2c(c1)O[C@H](CN(C)S(=O)(=O)c1ccccc1)[C@H](C)CN([C@@H](C)CO)S2(=O)=O | inactive: 1.01 |
| CC(C=CC=C(C)C=CC1=C(C)CCCC1(C)C)=CC=CC=C(C)C=CC=C(C)C=CC1=C(C)CCCC1(C)C [beta-CAROTENE [2mM]] | inactive: 0.986 |
| CCOC(=O)N1CCN([C@H](c2ccc(OC)cc2)c2cc(CC)sc2NC(=O)c2ccccc2)CC1 | inactive: 1.02 |
| COc1ccc(S(=O)(=O)N(C)C[C@H]2Oc3cc(C4=CCCC4)ccc3S(=O)(=O)N([C@@H](C)CO)C[C@@H]2C)cc1 | inactive: 1.02 |
| O=C(NO)c1cccc(C(=O)N/N=C/[C@H](O)[C@@H](O)[C@H](O[C@@H]2O[C@H](CO)[C@H](O)[C@H](O)[C@H]2O)[C@H](O)CO)c1 | inactive: 0.987 |
| COc1cc2c(c3ccccc13)OC(C)(C)C=C2 | inactive: 0.89 |
| CC(C)NC(=O)Nc1ccc2c(c1)CC(=O)N([C@H](C)CO)C[C@@H](C)[C@@H](CN(C)S(=O)(=O)c1ccc(Cl)cc1)O2 | inactive: 1 |
| CCNC1CC(C)S(=O)(=O)c2sc(S(N)(=O)=O)cc21.Cl (stereo not drawn) | inactive: 1.11 |
| Cc1noc(C)c1S(=O)(=O)N(C)C[C@H]1Oc2ccc(NC(=O)Nc3ccccc3)cc2C(=O)N([C@H](C)CO)C[C@@H]1C | inactive: 0.967 |
| C[C@@H]1CN([C@@H](C)CO)S(=O)(=O)c2ccc(C#CC3CCCC3)cc2O[C@@H]1CN(C)Cc1cncnc1 | inactive: 1 |

| Structure (SMILES) | relative growth |
| --- | --- |
| O=C(C[C@@H]1CC[C@@H]2[C@H](COC[C@H](O)CN2S(=O)(=O)c2ccc(Cl)cc2)O1)NCCN1CCCC1 | inactive: 0.991 |
| COc1ccc(S(=O)(=O)Nc2cccc3c2O[C@H](CN(C)S(=O)(=O)c2ccc(OC)cc2)[C@@H](C)CN([C@@H](C)CO)C3=O)cc1 | inactive: 1.02 |
| COCC#Cc1cnc2c(c1)C(=O)N([C@@H](C)CO)C[C@@H](C)[C@H](CN(C)C(=O)Nc1cc(F)ccc1F)O2 | inactive: 1.01 |
| C[C@H](CO)N1C[C@H](C)[C@H](CN(C)S(=O)(=O)c2cn(C)cn2)Oc2ccc(NS(C)(=O)=O)cc2C1=O | inactive: 1 |
| C[C@@H]1CCCCO[C@H](CN(C)C(=O)Nc2ccccc2)[C@H](C)CN([C@H](C)CO)C(=O)c2cc(NC(=O)CCC(F)(F)F)ccc2O1 | inactive: 0.999 |
| C[C@H](CO)N1C[C@H](C)[C@H](CN(C)S(=O)(=O)c2cn(C)cn2)Oc2ncc(C3=CCCC3)cc2C1=O | inactive: 1.03 |
| C[C@@H]1CCCCO[C@H](CN(C)Cc2ccc(C(=O)O)cc2)[C@H](C)CN([C@H](C)CO)C(=O)c2cc(NC(=O)Nc3ccc(C(F)(F)F)cc3)ccc2O1 | inactive: 0.939 |
| Cc1noc(C)c1NC(=O)Nc1ccc2c(c1)CC(=O)N([C@H](C)CO)C[C@@H](C)[C@@H](CN(C)C(=O)NC(C)C)O2 | inactive: 0.965 |
| CN(C)c1ccc(NC(=O)CN)cc1 | inactive: 0.968 |
| COc1ccc(CNC(=O)N(C)C[C@@H]2OCc3ccccc3-c3c(n(C)c4ccccc34)C(=O)N([C@H](C)CO)C[C@H]2C)cc1 | inactive: 1.01 |
| COc1ccc(CN(C)C[C@@H]2Oc3c(NC(=O)c4ccc(-c5nccs5)cc4)cccc3C(=O)N([C@H](C)CO)C[C@H]2C)cc1 | inactive: 1.03 |
| C[C@@H]1CCCCO[C@@H](CN(C)C(=O)Nc2ccc(C(F)(F)F)cc2)[C@H](C)CN([C@H](C)CO)C(=O)c2cc(NC(=O)C3CCCCC3)ccc2O1 | inactive: 1.02 |
| C[C@@H]1CN([C@H](C)CO)C(=O)Cc2cc(NC(=O)Nc3ccccc3)ccc2O[C@@H]1CN(C)Cc1ccc(C(F)(F)F)cc1 | inactive: 1.06 |
| NCC[C@H]1CC[C@H](NC(=O)C2CCC2)[C@@H](CO)O1 | inactive: 0.993 |
| C[C@@H]1CN([C@@H](C)CO)C(=O)Cc2cc(NC(=O)Nc3ccc4c(c3)OCO4)ccc2O[C@@H]1CN(C)C(=O)Nc1ccc(C(F)(F)F)cc1 | inactive: 0.99 |
| Cc1cc(C(=O)Nc2cccc3c2O[C@@H](CN(C)C(=O)Nc2ccccc2)[C@@H](C)CN([C@H](C)CO)C3=O)n(C)n1 | inactive: 0.974 |
| C[C@@H]1CN([C@H](C)CO)C(=O)c2cc(NS(=O)(=O)c3ccccc3)ccc2O[C@@H](C)CCCCO[C@H]1CN(C)Cc1ccc(Cl)c(Cl)c1 | inactive: 0.964 |
| C[C@@H]1CN([C@@H](C)CO)C(=O)c2cc(NC(=O)CCCN(C)C)ccc2O[C@H]1CN(C)Cc1ccc(C(=O)O)cc1 | inactive: 0.978 |
